The supplement of paper PMC3334620
Over roughly 33,000 sequences, “E-score (-0.5 to 0.5)” has its median near -0.01; the highest 2% begin near 0.26. This is one part of the list.

Each sequence was assayed against Ste12 (UniProt P13574) (assay: PBM E-score (8-mer binding enrichment) (E-score (-0.5 to 0.5)); higher = stronger / more preferred TF binding; most listed sequences are background and not binding sites). Conditions: protein concentration: 200 nM; construct: GST-DNA-binding domain.
Method in brief: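 Each ungapped eight-base word and its reverse complement, pooled, received an E-score from the Universal PBM Analysis Suite. Underlying scans, normalised with masliner, recorded fluorescent anti-GST bound to GST-tagged yeast transcription factors. These were applied at about 100-200 nM to universal all-10-mer Agilent arrays double-stranded by primer extension.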
AAAGCCTA was tested, and the “PBM E-score” value was -0.129. For CTCCCCAG, the “PBM E-score” value was 0.032. In the case of ATGTGTTA, the “PBM E-score” value is reported as 0.159. With TAGGTGAA the “PBM E-score” value was -0.0106. For CTAGGGCA, the “PBM E-score” value was -0.159. With AGTCTCGC the “PBM E-score” value was -0.0327. In the case of ATGCATCC, the “PBM E-score” value is reported as -0.0591. For GAATCCTA, the “PBM E-score” value was -0.0649. With CTTGGTGC the “PBM E-score” value was -0.0549. With CCTGCACA the “PBM E-score” value was -0.182. In the case of ATGCATAA, the “PBM E-score” value is reported as 0.00819. CCCGGTAC was tested, and the “PBM E-score” value was -0.162. For CTCAATAA, the “PBM E-score” value was 0.113. In the case of AGTCCAAT, the “PBM E-score” value is reported as -0.0915. TCAACACA was tested, and the “PBM E-score” value was 0.161. For GCTATCGA, the “PBM E-score” value was -0.031. AAAGGGTC was tested, and the “PBM E-score” value was -0.0177. In the case of AGGGCACG, the “PBM E-score” value is reported as -0.103. With GCGCGGCA the “PBM E-score” value was 0.0978. TACCGTAA was tested, and the “PBM E-score” value was 0.0868. For GTAGTCCA, the “PBM E-score” value was -0.291. With CTCCTCAC the “PBM E-score” value was -0.16. With GATGAACA the “PBM E-score” value was 0.00898. With CTTGTTTC the “PBM E-score” value was 0.375. In the case of ATCTTCAT, the “PBM E-score” value is reported as 0.121. For ACATGGAT, the “PBM E-score” value was 0.0543. With AACTGCGT the “PBM E-score” value was -0.192. For CATCTTTA, the “PBM E-score” value was 0.0614. For AAAATTAT, the “PBM E-score” value was 0.337. In the case of ATAGTCCC, the “PBM E-score” value is reported as -0.186. In the case of ATCCGGAA, the “PBM E-score” value is reported as 0.0122. In the case of AACGACAC, the “PBM E-score” value is reported as -0.0753. For ACCCTCTA, the “PBM E-score” value was -0.119. In the case of AACGATAG, the “PBM E-score” value is reported as 0.12. In the case of ATACGTTA, the “PBM E-score” value is reported as 0.00095. With CTAGCCCC the “PBM E-score” value was -0.0142. For ATCAGAGC, the “PBM E-score” value was 0.122. GCACTAGA was tested, and the “PBM E-score” value was -0.0307. For CCTCGGAA, the “PBM E-score” value was 0.113. In the case of CAAGCGAC, the “PBM E-score” value is reported as 0.0365. For ACTCATAG, the “PBM E-score” value was -0.0812. For GCTTAGCA, the “PBM E-score” value was -0.107. With CCTCGTGC the “PBM E-score” value was -0.0395. For CAATGCAC, the “PBM E-score” value was -0.042. For CGAGCGGA, the “PBM E-score” value was 0.0598. In the case of CAGTAATA, the “PBM E-score” value is reported as 0.124. In the case of CTTGGTAC, the “PBM E-score” value is reported as -0.0162. In the case of AATATGCC, the “PBM E-score” value is reported as -0.21. CTTTTCAC was tested, and the “PBM E-score” value was 0.119. With CTGATTAA the “PBM E-score” value was 0.0273. In the case of GGGACTAC, the “PBM E-score” value is reported as -0.06. For CATTAATG, the “PBM E-score” value was 0.141. In the case of AGAGGCTC, the “PBM E-score” value is reported as -0.293. For ATTTGTTA, the “PBM E-score” value was 0.274. For GAGATTAA, the “PBM E-score” value was -0.0406. For ACGGGCAG, the “PBM E-score” value was 0.00316. With CCACAGTA the “PBM E-score” value was 0.0539. CGTCCAAG was tested, and the “PBM E-score” value was -0.272. With ATCTTATC the “PBM E-score” value was 0.141. In the case of TGTCTAAA, the “PBM E-score” value is reported as 0.0325. With ACCCACAC the “PBM E-score” value was -0.0854. With GGGCGCTA the “PBM E-score” value was -0.227. With ATCCCAAG the “PBM E-score” value was -0.0738. For AAATTGCT, the “PBM E-score” value was 0.14. For CGCAGCAA, the “PBM E-score” value was -0.249. In the case of CCTGGGTC, the “PBM E-score” value is reported as -0.0574. In the case of AGTTGATG, the “PBM E-score” value is reported as -0.123. AAGTACAG was tested, and the “PBM E-score” value was -0.165. ATCTGAAG was tested, and the “PBM E-score” value was 0.0795. In the case of AATCGTTC, the “PBM E-score” value is reported as -0.0664. For GAGTTAAA, the “PBM E-score” value was 0.19. GGAAGGAC was tested, and the “PBM E-score” value was -0.111. For GACGCAGA, the “PBM E-score” value was -0.014. CATAGATG was tested, and the “PBM E-score” value was -0.0464. With GGAGAGCA the “PBM E-score” value was -0.154. For GAGGGCGC, the “PBM E-score” value was -0.0659. In the case of TGAGTAAA, the “PBM E-score” value is reported as 0.0686. In the case of GGATAGGA, the “PBM E-score” value is reported as 0.049. ACTTGGAT was tested, and the “PBM E-score” value was 0.0871. For GAGCAGAA, the “PBM E-score” value was -0.0605. CGCGCCTA was tested, and the “PBM E-score” value was 0.0604. CGTGGAGC was tested, and the “PBM E-score” value was -0.0859. With CAGGAATG the “PBM E-score” value was -0.0309. ATCCGTAA was tested, and the “PBM E-score” value was 0.0503. ACAAGGCG was tested, and the “PBM E-score” value was 0.0176. In the case of TCGCGCAA, the “PBM E-score” value is reported as 0.0392. For TTAAATAA, the “PBM E-score” value was 0.249. With AGTTGTCG the “PBM E-score” value was -0.0338. GAAATGGA was tested, and the “PBM E-score” value was -0.191. In the case of ACTATGCT, the “PBM E-score” value is reported as 0.073. CAACACTA was tested, and the “PBM E-score” value was 0.0388. With AACACATT the “PBM E-score” value was 0.181. In the case of CATGGTCG, the “PBM E-score” value is reported as 0.00496. For GGCAACCC, the “PBM E-score” value was -0.0508. For AGGCGGCA, the “PBM E-score” value was -0.266. For CCTAAGAC, the “PBM E-score” value was -0.115. In the case of AACTCGGG, the “PBM E-score” value is reported as -0.0999. AGATGTCG was tested, and the “PBM E-score” value was 0.0449. ACCCGCGA was tested, and the “PBM E-score” value was 0.0816. In the case of GTATTATA, the “PBM E-score” value is reported as 0.202. In the case of ATAACCGG, the “PBM E-score” value is reported as -0.0698. With AGACTATG the “PBM E-score” value was -0.121. For ATGAGTTC, the “PBM E-score” value was -0.135. In the case of TATCAGAA, the “PBM E-score” value is reported as 0.108. With TCCGACCA the “PBM E-score” value was 0.113. For CTGCAGTC, the “PBM E-score” value was -0.189. AATATAGT was tested, and the “PBM E-score” value was 0.113. For ATATGAAA, the “PBM E-score” value was 0.346. With ATAATTGG the “PBM E-score” value was 0.17. GAGAAAAC was tested, and the “PBM E-score” value was 0.0888. With AAATTACC the “PBM E-score” value was 0.197. AGAGTAGC was tested, and the “PBM E-score” value was -0.137. In the case of TGGTAACA, the “PBM E-score” value is reported as 0.0801. For GAAAACGA, the “PBM E-score” value was -0.0839. CTCAGAGC was tested, and the “PBM E-score” value was -0.168. With AAAAAAAT the “PBM E-score” value was 0.337. GTGCGGCA was tested, and the “PBM E-score” value was -0.18. ACAATAGC was tested, and the “PBM E-score” value was 0.0018. ACTTAAGA was tested, and the “PBM E-score” value was 0.0409. CCGTCTGA was tested, and the “PBM E-score” value was 0.0344. With CCGTTTGA the “PBM E-score” value was 0.056. With GGAACAAC the “PBM E-score” value was 0.108. In the case of CCGCTCAC, the “PBM E-score” value is reported as -0.156. In the case of ATCCTGCC, the “PBM E-score” value is reported as -0.0925. ACGTTGGG was tested, and the “PBM E-score” value was 0.0249. GCTTACAC was tested, and the “PBM E-score” value was -0.0301. In the case of GAGGGAAC, the “PBM E-score” value is reported as -0.116. In the case of GAGGTAAA, the “PBM E-score” value is reported as 0.334. In the case of ACGGTATA, the “PBM E-score” value is reported as 0.0177. GGAGAGCC was tested, and the “PBM E-score” value was -0.0173. AACGTGTC was tested, and the “PBM E-score” value was -0.0223. For TCAGGAGA, the “PBM E-score” value was 0.119. In the case of CCGTAACG, the “PBM E-score” value is reported as -0.0913. For AAGTGAAA, the “PBM E-score” value was 0.291. CTACAACA was tested, and the “PBM E-score” value was -0.0211. In the case of ACTATTGC, the “PBM E-score” value is reported as 0.101. For GCGCACTA, the “PBM E-score” value was -0.0313. With GCGCGCCC the “PBM E-score” value was 0.0387. For CCATGAAG, the “PBM E-score” value was -0.0229. For ATAGACGA, the “PBM E-score” value was -0.0718. In the case of AGTTCAGA, the “PBM E-score” value is reported as 0.0176. In the case of CGCTCACA, the “PBM E-score” value is reported as -0.0983. In the case of AGGACCTG, the “PBM E-score” value is reported as -0.216. In the case of ATCAGCTA, the “PBM E-score” value is reported as 0.0454. For CTAGCCCA, the “PBM E-score” value was 0.0776. For CGATGACA, the “PBM E-score” value was 0.00062. CTGGCGGA was tested, and the “PBM E-score” value was -0.0918. For AGGATGTC, the “PBM E-score” value was -0.164. GAAACATA was tested, and the “PBM E-score” value was 0.433. For ACAATACT, the “PBM E-score” value was 0.148. AAGCTTCA was tested, and the “PBM E-score” value was 0.0617. With CTAGGACA the “PBM E-score” value was -0.143. With CGCGAGTC the “PBM E-score” value was -0.172. For CGAGTGTA, the “PBM E-score” value was -0.11. ACACGGAT was tested, and the “PBM E-score” value was 0.0195. For CCTATAGG, the “PBM E-score” value was -0.0861. With CACCGCCC the “PBM E-score” value was 0.27. CTTGCTGA was tested, and the “PBM E-score” value was -0.103. With GTAAGGGA the “PBM E-score” value was 0.0319. In the case of AAACGGGT, the “PBM E-score” value is reported as 0.184. In the case of GCAAACCC, the “PBM E-score” value is reported as -0.0626. With AACGTTGC the “PBM E-score” value was 0.152. With AGCAGCGA the “PBM E-score” value was 0.0491. ACGACATA was tested, and the “PBM E-score” value was -0.127. In the case of CTTAATCA, the “PBM E-score” value is reported as 0.183. ATGACAAC was tested, and the “PBM E-score” value was 0.00794. For AAGCGACT, the “PBM E-score” value was -0.113. GCTCAACA was tested, and the “PBM E-score” value was -0.0854. For GAAACGTA, the “PBM E-score” value was 0.325. With CCGAGGAC the “PBM E-score” value was 0.0114. GAACAGCA was tested, and the “PBM E-score” value was 0.0498. For ACAGTCGT, the “PBM E-score” value was -0.0779.
